# The full ranking holds about 110,000 compounds; the median of “z-score” is about -0.1, and the highest 2% start at about 2. The list shows a part of the results. The source made the active and inactive calls.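 The calls were made as follows: active = z-score in the third read window above 3 or below -3; inactive = the rest.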
# Target: Metabotropic glutamate receptor 8 (Rattus norvegicus) (UniProt P70579)
# Assay: rat mGluR8 modulators via GIRK flux, primary screen, cell-based, thallium flux, HTS (AID 488969)
# Settings: HEK293 rat mGluR8, GIRK (G protein-gated inwardly rectifying potassium channel) thallium flux, FluoZin2; at 10 µM; stronger effect = higher value; submaximal glutamate (EC20) added with thallium
# UniProt P70579, sequence (P70579 whole entry, looked up): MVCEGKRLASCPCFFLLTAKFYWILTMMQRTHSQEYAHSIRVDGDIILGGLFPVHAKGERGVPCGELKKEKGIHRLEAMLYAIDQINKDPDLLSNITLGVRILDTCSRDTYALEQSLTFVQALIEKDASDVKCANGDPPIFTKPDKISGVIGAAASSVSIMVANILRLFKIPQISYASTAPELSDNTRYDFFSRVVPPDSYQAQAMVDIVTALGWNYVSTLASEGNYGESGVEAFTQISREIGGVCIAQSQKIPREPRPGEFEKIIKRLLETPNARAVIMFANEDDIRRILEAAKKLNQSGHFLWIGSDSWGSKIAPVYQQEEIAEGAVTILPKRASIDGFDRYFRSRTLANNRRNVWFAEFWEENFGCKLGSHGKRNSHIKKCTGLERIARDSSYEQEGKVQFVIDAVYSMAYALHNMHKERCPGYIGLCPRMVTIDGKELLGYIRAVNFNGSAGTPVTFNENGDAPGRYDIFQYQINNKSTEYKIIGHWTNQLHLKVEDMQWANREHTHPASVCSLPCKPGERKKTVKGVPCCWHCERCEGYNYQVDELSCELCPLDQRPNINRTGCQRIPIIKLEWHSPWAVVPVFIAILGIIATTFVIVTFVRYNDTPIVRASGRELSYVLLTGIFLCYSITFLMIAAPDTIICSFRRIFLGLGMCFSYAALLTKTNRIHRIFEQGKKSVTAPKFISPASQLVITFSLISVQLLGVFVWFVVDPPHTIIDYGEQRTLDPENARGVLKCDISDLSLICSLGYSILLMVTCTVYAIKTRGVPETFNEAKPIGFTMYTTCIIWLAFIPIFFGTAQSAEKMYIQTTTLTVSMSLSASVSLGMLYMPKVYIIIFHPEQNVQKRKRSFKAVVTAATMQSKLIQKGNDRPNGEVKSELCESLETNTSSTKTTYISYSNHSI
row,SMILES,z-score
1,Cc1cnnc2c1-c1no[n+]([O-])c1CC2,0.0628
2,COc1ccc(Cl)cc1NC(=O)C(C)Sc1n[nH]c(N)n1 (stereo not given),-1.67
3,O=S(=O)(N/N=C/c1ccc2c(c1)OCCO2)c1ccccc1,-0.207
4,CCc1nnc(NC(=O)C(C)C)s1,-0.12
5,c1cc(CNCCCN2CCOCC2)ccn1,-0.0963
6,COc1cccc(/C=c2\sc3nc(-c4cccs4)nn3c2=O)c1OC,0.108
7,Cc1cc(C)c2nc(N3CCC(C(=O)N4CCN(C(=O)c5ccco5)CC4)CC3)sc2c1,-0.252
8,Cn1c(CSc2nc3ccccc3s2)n[nH]c1=S,1.41
9,CS(=O)(=O)Nc1ccc(C(=O)NC2CCCC2)cc1,-0.00695
10,CCN(CC)S(=O)(=O)c1ccc(NC(=O)Nc2cccc(C(F)(F)F)c2)cc1,-0.977
11,O=C(NNc1ncc(C(F)(F)F)cc1Cl)c1c(Cl)cccc1Cl,0.951
12,COc1cccc(Cn2c(C3CC3)nc3ccc(NC(=O)c4ccco4)cc3c2=O)c1,-0.429
13,CCC1(C)CC(c2nc(-c3ccc(OC)cc3)cs2)CCS1 (stereo not given),-0.645
14,Cc1cc(C)nc(SC(C)C(=O)O)n1 (stereo not given),-0.55
15,Cc1ccc(S(=O)(=O)N2CCN(C)CC2)cc1-c1nnc2c3ccccc3c(C)nn12,active: 9.27
16,Cc1ccc(C)c(CN2CCCN(C(=O)Cn3ncc4c3-c3ccccc3OC4)C2)c1,1.33
17,COCCNC(=O)Cn1cnc2c1c(=O)n(C)c(=O)n2C,0.12
18,Cc1ccc(CCNC(=O)C2CCN(S(=O)(=O)N3CCC4(CC3)OCCO4)CC2)cc1,0.0322
19,COc1ccc(OCC(=O)Nc2ccc(S(=O)(=O)N3CCCCCC3)cc2)cc1,0.0788
20,Cc1ccccc1-n1c(CSC(=N)N)nc2ccccc2c1=O,-0.178
21,Cc1c(Br)c([N+](=O)[O-])nn1CCCC(=O)Nc1sc2c(c1C(N)=O)CCC(C)C2 (stereo not given),-0.142
22,Cc1c(C(=O)NCc2ccccc2)oc2c1C(=O)CCC2,0.368
23,Cc1ccc(NC(=O)CN(C)C(=O)CSc2n[nH]c(N)n2)cc1,-0.342
24,CC(=O)C1=C(O)C(=O)N(CC#N)C1c1cccs1 (stereo not given),-0.0406

row,SMILES,z-score
1,COc1ccc(C(=O)NNS(=O)(=O)c2ccccc2)cc1,0.128
2,CCC1(C)Cc2ccccc2C(Nc2c(C)n(C)n(-c3ccccc3)c2=O)=N1 (stereo not given),1.7
3,Cc1cc(C)nc(NS(=O)(=O)c2ccc(N3C(=O)c4ccccc4C3=O)cc2)n1,-0.334
4,COc1ccc(NC(=O)c2c(-c3ccccc3)noc2C)c(OC)c1,-1.36
5,CC(=O)Nc1c(Br)cc(N2C(=O)CCC2=O)cc1Br,-0.17
6,O=C(O)CSC1CC(=O)N(c2ccc(Cl)c(Cl)c2)C1=O (stereo not given),0.483
7,CCCCSc1nc(N)c(C#N)c(-c2cccs2)c1C#N,-0.0123
8,CCC(C)[C@H](N)c1nnc(SCc2cccc(F)c2)o1 (stereo not given in full),-0.133
9,CCNC(=O)n1nccc1C(C)Oc1ccccc1 (stereo not given),-0.015
10,O=C(O)c1c(Cl)c(Cl)c(Cl)c(Cl)c1C(=O)N1CCCC1,-0.0252
11,Cn1c(=O)[nH]c(=O)c2[nH]c(NCCCN3CCOCC3)nc21,0.371
12,COC(=O)c1sc(S(=O)(=O)Nc2ccc3cn[nH]c3c2)c(C(=O)OC)c1C,-0.526
13,O=C(Nc1ccc2c(c1)OCO2)c1ccc(Br)s1,-0.265
14,COCCNC(=O)CN(C)S(=O)(=O)c1ccc2c(c1)OCCO2,-0.231
15,C/C(=N\NC(=O)C1COc2ccccc2O1)c1cccs1 (stereo not given),0.212
16,CCn1c(=O)cc(SCC(=O)NCc2cccnc2)c2ccccc21,0.0104
17,COc1c2ccoc2nc2c(OC)cccc12,-0.0825
18,Cn1c(NC(=O)c2cccc(C(F)(F)F)c2)cc(=O)n(C)c1=O,-0.0357
19,CN1CCc2nc(SCC(=O)Nc3ccc(F)cc3)c(C#N)cc2C1,-0.0192
20,COC(=O)C1=C(O)/C(=C\c2ccc(CNC(=O)C(=O)Nc3ccc(C)cc3)o2)N=C1C,-0.511
21,O=S(=O)(/C=C/c1ccccc1)N1CCN(c2cccc(Cl)c2)CC1,-0.286
22,COc1cc2nc(SCC(=O)NC3CC3)n(CCC3=CCCCC3)c(=O)c2cc1OC,0.128
23,O=C(CSc1nnc(Cc2ccccc2)n1-c1cccc(Cl)c1)NNC(=O)Cc1ccccc1,1.05
24,Cc1sc(NC(=O)C2C3CCC(O3)C2C(=O)O)c(C(=O)OC(C)C)c1-c1ccc(Cl)cc1 (stereo not given),-0.429

row,SMILES,z-score
1,CCOc1ccc(C(=O)Nc2ccccc2CC)cc1[N+](=O)[O-],-0.15
2,COc1cc(-c2nc3cnccn3c2Nc2ccc(C)cc2)ccc1O,0.106
3,COc1ccccc1NS(=O)(=O)c1ccc(Cl)c(NC(=O)CN2C(=O)c3ccccc3C2=O)c1,-0.297
4,COc1ccc(OC)c(NC(=O)CSc2ncnc3c2cnn3-c2ccccc2Cl)c1,1.05
5,CN(C)C(=O)NC1CCCCCCCCCCC1,-0.137
6,COc1ccc(-n2c(SCC(N)=O)nnc2-c2cccnc2)cc1,1.02
7,COc1cc(CN2CCN(c3ccccc3F)CC2)c([N+](=O)[O-])cc1OC,-0.0486
8,c1ccc(-c2nc(CSc3nnnn3-c3ccccc3)cs2)cc1,-0.317
9,O=S(=O)(c1cccs1)N1CN(Cc2ccccc2)c2nc3ccccc3nc21,-0.0816
10,FC(F)(F)c1cccc(-c2noc(CN3CCOCC3)n2)c1,-2.25
11,O=C(c1cc2c(ccc3ccccc32)oc1=O)N1CCN(CCO)CC1,-1.64
12,CCOC(=O)N1CCN(C(=O)c2ccc(C)c(S(=O)(=O)Nc3cccc(C)c3C)c2)CC1,-0.291
13,COC(=O)c1ccc(N2CCC(c3cc(-c4ccc(OC)cc4)n[nH]3)CC2)c([N+](=O)[O-])c1,0.106
14,COc1ccc(-n2nnc3c(SCC(=O)NCC4CCCO4)ncnc32)cc1 (stereo not given),0.719
15,CCNC(=O)COC(=O)C1CCC(=O)N(c2ccc(OC)cc2)C1c1ccc(OC)cc1 (stereo not given),-0.115
16,COc1ccc(C(=O)c2sc3nc(C)cc(-c4cccs4)c3c2N)cc1OC,-0.587
17,Cc1ccc(C(=O)NCC2(c3ccccc3)CCCC2)cc1,-0.567
18,Cn1cnc2cc(OC(=O)c3ccccc3)ccc21,-0.787
19,COc1ccccc1-n1c(SCC(=O)Nc2nnc(C)s2)nc2c(c1=O)SCC2,-0.363
20,CCn1c(N2CCN(C(=S)NCCc3ccccc3)CC2)nc2ccccc21,-0.543
21,CCOC(=O)C1=C(CN2CCc3ccccc32)NC(=O)NC1c1cccc([N+](=O)[O-])c1 (stereo not given),-0.00369
22,COC(=O)CN1C(=O)C2(C(C#N)=C(N)Oc3n[nH]c(-c4cccs4)c32)c2ccccc21 (stereo not given),0.805

# — PubChem BioAssay AID488969 (Vanderbilt High Throughput Screening Facility, 2010)
